According to FireProtDB (doi:10.1021/bi060525p):

Conditions: Gallus gallus, Thermal, Phosphate 10 mM

Lysozyme C wild type (chain not printed)
Tm (pH 4.2, Absorbance): 73.3 °C
Tm (pH 4.2, CD): 74 °C
Tm (pH 4.2, DSC): 73.2 °C
Tm (pH 4.2, Fluorescence): 75 °C
Tm (pH 4.2, Optical Density): 69.3 °C
Tm (pH 7.4, Absorbance): 75 °C
Tm (pH 7.4, CD): 80 °C
Tm (pH 7.4, DSC): 77.7 °C
Tm (pH 7.4, Fluorescence): 80 °C
